About 120 (0.75%) of roughly 16,000 compounds were called active. Inconclusive results (about 4%) are left out. Calls follow the shape of the dose curve; as a rule, active = well fitted inhibition curve with a large enough effect; inconclusive = small, poorly fitted or top-dose-only effect; inactive = no such curve, though single readings can be large or run the other way. Some of the results follow.

UniProt O95398, sequence (O95398 whole entry, looked up): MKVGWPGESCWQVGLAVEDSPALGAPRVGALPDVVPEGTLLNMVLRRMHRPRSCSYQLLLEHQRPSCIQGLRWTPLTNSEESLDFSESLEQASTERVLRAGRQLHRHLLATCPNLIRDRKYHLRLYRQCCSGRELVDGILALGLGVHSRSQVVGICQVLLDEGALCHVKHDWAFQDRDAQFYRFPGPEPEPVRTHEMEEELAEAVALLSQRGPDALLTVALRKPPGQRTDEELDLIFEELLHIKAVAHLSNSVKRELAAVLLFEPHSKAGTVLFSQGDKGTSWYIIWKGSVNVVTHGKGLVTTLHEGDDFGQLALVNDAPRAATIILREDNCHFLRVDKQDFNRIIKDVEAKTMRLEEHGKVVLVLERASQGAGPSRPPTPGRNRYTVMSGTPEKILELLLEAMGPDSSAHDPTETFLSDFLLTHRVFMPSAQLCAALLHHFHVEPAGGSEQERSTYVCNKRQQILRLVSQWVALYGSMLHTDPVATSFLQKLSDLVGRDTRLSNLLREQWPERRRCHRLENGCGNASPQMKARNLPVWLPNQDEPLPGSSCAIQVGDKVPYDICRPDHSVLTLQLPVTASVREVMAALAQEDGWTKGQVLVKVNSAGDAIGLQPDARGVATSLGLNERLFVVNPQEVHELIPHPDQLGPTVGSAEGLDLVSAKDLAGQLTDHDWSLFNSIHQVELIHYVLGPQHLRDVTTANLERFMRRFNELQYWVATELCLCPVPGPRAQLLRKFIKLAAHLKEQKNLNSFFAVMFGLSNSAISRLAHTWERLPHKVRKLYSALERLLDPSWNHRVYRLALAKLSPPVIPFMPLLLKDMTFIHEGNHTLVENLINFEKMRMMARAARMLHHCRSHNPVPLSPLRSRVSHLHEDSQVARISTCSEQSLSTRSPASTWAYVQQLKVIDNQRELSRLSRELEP

This test addresses Rap guanine nucleotide exchange factor 3 (Homo sapiens) (UniProt O95398). The test is described as follows: Validation qHTS for antagonist of cAMP-regulated guanine nucleotide exchange factor 3 (EPAC1).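 Also: plate controls were DMSO for no effect and ATA control for full effect; nearly all actives have a fitted effect of over 75% in size.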 The following applies: EPAC1 Rap1B-BODIPY-GDP exchange, fluorescence; series mostly up to 150 µM; activity change, negative = inhibition: at the top concentration. The method, boiled down:
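Nucleotide exchange followed as fluorescence loss when BODIPY-GDP leaves Rap1B (480 nm excitation, 540 nm emission), read at 5 min intervals over 30 min. Reaction: 100 nM EPAC1, 250 nM RAP1B-BODIPY-GDP, 50 uM GDP; ATA and DMSO define normalization.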
Take `CCCCCCCCCCCCN1C/C(=C\C(=O)OCC)c2cc(C(F)(F)F)ccc2S1(=O)=O`: the “activity change, negative = inhibition” value was inactive: -18.6%.

Regarding `CC(=O)NC[C@H]1CN(c2ccc(N3CCOCC3)c(F)c2)C(=O)O1`, the “activity change, negative = inhibition” value is inactive: -3.13%.

With `Cc1cnc(CNc2cc(-c3ccccc3Cl)ncn2)cn1`, the “activity change, negative = inhibition” value is inactive: 11.7%.

On to `CSc1ccccc1C(=O)NCC1Cc2cc(F)cc(-c3cnccn3)c2O1` (stereo unspecified), for which the “activity change, negative = inhibition” value was inactive: 10.3%.

Regarding `NC(N)=[N+]1CCc2ccccc2C1`, the “activity change, negative = inhibition” value was inactive: -0.338% [at 75.8 µM].

Consider `Cc1noc(C)c1-c1cncnc1NCc1cccnc1`, for which the “activity change, negative = inhibition” value was inactive: 8.46%.

For `O=C1CCC[C@@H]2C[C@@]3(C[C@@H]4CCN1[C@H]24)Nc1ccccc1NC3=NC1CCCCC1`, the “activity change, negative = inhibition” value was inactive: 16.4%.

As to `CC[C@H](C)C(=O)O[C@H]1C[C@H](O)C=C2C=C[C@H](C)[C@H](CC[C@@H](O)C[C@@H](O)CC(=O)O)[C@H]21`, the “activity change, negative = inhibition” value was inactive: 21.3%.

Regarding `Cc1cccn2c(=O)c(-c3nnn[nH]3)cnc12`, the “activity change, negative = inhibition” value was inactive: 16.9%.

As for `COc1cc2nc(N(C)C)c(CNCc3cccc4ccccc34)cc2c(OC)c1OC`, the “activity change, negative = inhibition” value was inactive: 28.5%.

As to `COc1ccc2[nH]cc(CCNc3ncnc4ccc(-c5ccccc5C#N)cc34)c2c1`, the “activity change, negative = inhibition” value was inactive: 6.37%.

For the compound `O=C1CC2(CCCC2)CC(=O)N1CCCCNCC1COc2ccccc2O1` (stereo unspecified), the “activity change, negative = inhibition” value is inactive: -4.02%.

Regarding `CC1=C(C(=O)O)N2C(=O)[C@@H](NC(=O)[C@H](N)c3ccccc3)[C@H]2SC1`, the “activity change, negative = inhibition” value is inactive: -0.463%.

For the compound `Cn1cccc1C(=O)N1CCC2(CCCN(c3cccc(-c4ccccc4)c3)C2)CC1`, the “activity change, negative = inhibition” value is inactive: 0.86%.

In the case of `COc1cccc(C(=O)NCC2Cc3cccc(-c4nc(C)cnc4C)c3O2)c1OC` (stereo unspecified), the “activity change, negative = inhibition” value was inactive: 13.7%.

As to `O=S(=O)(c1cccc2c(Cl)cccc12)N1CCCNCC1`, the activity change, negative = inhibition entry is “inactive”.

`CCOCCn1c(N2CCCN(C)CC2)nc2ccccc21`: the “activity change, negative = inhibition” value is inactive: 13.1%.

With `COCC(=O)N1CCC2(CCCN(c3cccc(-c4ccccc4)c3)C2)CC1`, the “activity change, negative = inhibition” value is inactive: -4.04%.

For the compound `COc1ccc(OC)c(-c2cc(Cl)c3c(c2)CC(CNC(=O)c2coc4c2C(=O)CCC4)O3)c1` (stereo unspecified), the “activity change, negative = inhibition” value was inactive: 10.4%.

With `Cc1ccccc1CN1[C@H]2CCCC[C@@H]2OCCS1(=O)=O`, the “activity change, negative = inhibition” value was inactive: 6.74%.

On to `COCCn1c(=O)c(C)nc2cnc(Oc3ccc(OC)cc3)nc21`, for which the “activity change, negative = inhibition” value is inactive: -3.46%.

Consider `COCCN1CCN(C(=O)c2cnn(-c3nccc(-c4ccccc4OC)n3)c2-c2ccco2)CC1`, for which the “activity change, negative = inhibition” value was inactive: 22.3%.

As to `O=C(c1cnccn1)N1CCC2(CC1)CN(c1ccncc1)C2`, the “activity change, negative = inhibition” value was inactive: 15.2%.

Regarding `CCNC(=O)CCC(N)C(=O)O` (stereo unspecified), the “activity change, negative = inhibition” value was inactive: -5.58%.

For the compound `Cn1c(=O)c(CCc2ccccc2)nc2cnc(OCc3ccccc3)nc21`, the “activity change, negative = inhibition” value is inactive: 12.3%.

As to `COc1cc(=O)n2c(c1C(=O)N(C)Cc1nonc1C)CCN(Cc1ccc(C)cc1C)CC2`, the “activity change, negative = inhibition” value is inactive: 21.9%.

`O=C(c1cc(C(F)(F)F)cc(C(F)(F)F)c1)N1CCC2(CCN(Cc3nccs3)CC2)CC1`: the “activity change, negative = inhibition” value was inactive: 1.07%.

For `N[C@H](C(=O)O)c1cccc(O)c1`, the activity change, negative = inhibition entry was “inactive”.

Turning to `Nc1nc(Nc2ccccc2)nc2c1ncn2[C@@H]1O[C@H](CO)[C@@H](O)[C@H]1O`, the “activity change, negative = inhibition” value is inactive: 11.6% [at 75.8 µM].

In the case of `OC1(c2cccnc2)CCN(Cc2ccc3c(c2)CN(Cc2cc(F)cc(F)c2)CCO3)CC1`, the “activity change, negative = inhibition” value was inactive: 17.2%.

With `COc1cc(CCNC(C)=O)c(C(=O)/C=C/c2cccc(OC)c2OC)cc1OC`, the “activity change, negative = inhibition” value was inactive: -6.38%.

As to `Cc1cc(O)cc(O)c1C(=O)O`, the “activity change, negative = inhibition” value was inactive: 8.07%.

Take `CO[C@H]1[C@H](NC(=O)c2cccs2)c2ccccc2C12CCN(Cc1cccn1-c1ccccn1)CC2`: the “activity change, negative = inhibition” value was inactive: 2.04%.

Consider `CC(C)(C)NCC(O)COc1cccc2c1CC(O)C(O)C2` (stereo unspecified), for which the “activity change, negative = inhibition” value is inactive: 13.8%.

For `COC(=O)[C@@H]1CCCN1Cc1ccc2c(c1)CN(Cc1cccn1-c1ccccn1)CCO2`, the “activity change, negative = inhibition” value is inactive: 13.5%.

Take `c1cncc(CNc2ncnc3ccc(-c4cccnc4)cc23)c1`: the “activity change, negative = inhibition” value was inactive: -13.1%.

`C=C[C@]1(C)C[C@@H](OC(=O)CO)[C@]2(C)[C@H](C)CC[C@]3(CCC(=O)[C@H]32)[C@@H](C)[C@@H]1O`: the “activity change, negative = inhibition” value was inactive: 4.89%.

Regarding `Cc1noc(C)c1C(=O)N1CCC[C@@]2(CCN(Cc3ccc(C#N)cc3)C2)C1`, the “activity change, negative = inhibition” value is inactive: -3.25%.

Take `Cc1cccc(C)c1NC(=O)C[N+](C)(C)C`: the “activity change, negative = inhibition” value is inactive: 3.89%.

With `O=C(OCCN1CCCCC1)c1c[nH]c2ccccc12`, the activity change, negative = inhibition result is “inactive”.

Turning to `COc1ccccc1-c1ccc(C(=O)N(C)C(C)c2ccon2)c(N2CCN(c3ccccc3F)CC2)n1` (stereo unspecified), the “activity change, negative = inhibition” value was inactive: 8.5%.

Take `C=C1C(=O)OC2CC1C(OC(C)=O)CC(C)=CCCC(C)=CCC[C@@]2(C)O` (stereo partly specified): the “activity change, negative = inhibition” value was inactive: 5.65%.

As to `Cc1ccc(S(=O)(=O)/C=C/C#N)cc1`, the activity change, negative = inhibition entry is “inactive”.

As to `O=C(/C=C/c1ccc(O)cc1)c1c(O)cc(O)cc1O`, the “activity change, negative = inhibition” value is inactive: 11.4%.

Consider `CCCn1c(=O)c2[nH]c(-c3ccc(OCC(=O)NCCN)cc3)nc2n(CCC)c1=O`, for which the “activity change, negative = inhibition” value is inactive: -3.35% [at 75.8 µM].

As to `CCn1c(-c2ccccc2F)nc2cc(C(=O)N3CCNC(=O)C3CC(=O)OC)cc(NC(C)=O)c21` (stereo unspecified), the “activity change, negative = inhibition” value is inactive: 1.61%.

With `C=C1C(=O)OC2C1CC/C(C)=C/CCC1(C)OC21` (stereo unspecified), the “activity change, negative = inhibition” value was inactive: -15.9%.

For `O=C1c2ccccc2CCC1CNCCc1ccc(O)cc1` (stereo unspecified), the “activity change, negative = inhibition” value is inactive: 24.3%.

For `COC(=O)C1OC(=O)C2OC23[C@]2(C)C(O)CC4C(C)(C)C(OC(C)=O)CC(OC(C)=O)[C@@]4(C)C2CC[C@@]13C` (stereo partly specified), the activity change, negative = inhibition entry is “inactive”.

For `Cc1cnc(CNc2cc(-c3cccnc3)ncn2)cn1`, the “activity change, negative = inhibition” value is inactive: -14%.

For the compound `COc1cccc(/C=C/C(=O)O)c1C(C)C`, the “activity change, negative = inhibition” value is inactive: 9.75%.

For the origin of these results see PubChem BioAssay AID1645882 (National Center for Advancing Translational Sciences (NCATS), 2021).
